Results are given in words; binding and its absence hold for the method and conditions named. For some assays here: In cells and extracts the contact can be indirect. Some binding calls cover weakened binding; strength is not graded here. For some assays here: Where a sequence is shown, tags or fusion partners need not be part of it.
T1: HA-tagged PTPIP51 (UniProt Q96TC7)
T1 sequence: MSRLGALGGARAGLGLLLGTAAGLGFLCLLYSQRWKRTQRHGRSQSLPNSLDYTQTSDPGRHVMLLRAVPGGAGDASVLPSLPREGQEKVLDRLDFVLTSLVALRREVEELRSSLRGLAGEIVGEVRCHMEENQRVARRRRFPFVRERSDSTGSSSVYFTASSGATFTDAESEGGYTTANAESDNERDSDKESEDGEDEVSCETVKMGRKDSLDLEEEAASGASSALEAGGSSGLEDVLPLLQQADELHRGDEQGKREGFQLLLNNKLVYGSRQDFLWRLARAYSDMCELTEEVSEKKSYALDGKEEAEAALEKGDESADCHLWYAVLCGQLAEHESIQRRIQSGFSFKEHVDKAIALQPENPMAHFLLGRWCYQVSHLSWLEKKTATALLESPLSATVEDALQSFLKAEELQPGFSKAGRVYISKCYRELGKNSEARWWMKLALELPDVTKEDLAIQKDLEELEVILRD

Sequences of proteins named here, by UniProt entry; tags and fusion partners are left off. A change or cut given only in a name is not applied to a line headed by its entry. Residues count along the entry.
UniProt O95292: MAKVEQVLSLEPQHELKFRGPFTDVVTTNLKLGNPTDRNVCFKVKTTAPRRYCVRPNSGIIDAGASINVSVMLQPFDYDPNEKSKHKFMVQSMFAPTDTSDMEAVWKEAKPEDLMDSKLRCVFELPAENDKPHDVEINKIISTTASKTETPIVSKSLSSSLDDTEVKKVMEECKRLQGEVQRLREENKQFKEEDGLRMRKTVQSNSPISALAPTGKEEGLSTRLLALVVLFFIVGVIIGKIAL
GST-VAPB1-220 (the entire cytosolic domain): residues 1-220 of O95292
UniProt Q9QY76: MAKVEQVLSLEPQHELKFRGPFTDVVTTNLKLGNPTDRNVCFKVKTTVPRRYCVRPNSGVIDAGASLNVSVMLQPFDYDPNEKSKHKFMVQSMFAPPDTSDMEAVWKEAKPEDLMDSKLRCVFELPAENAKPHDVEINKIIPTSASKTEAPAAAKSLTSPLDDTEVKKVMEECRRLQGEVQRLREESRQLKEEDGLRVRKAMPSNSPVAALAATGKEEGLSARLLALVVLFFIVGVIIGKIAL

B1: PTPIP51 cytoplasmic domain (amino acids 36-470) (domain or fragment, UniProt Q96TC7 36-470)
chain: KRTQRHGRSQSLPNSLDYTQTSDPGRHVMLLRAVPGGAGDASVLPSLPREGQEKVLDRLDFVLTSLVALRREVEELRSSLRGLAGEIVGEVRCHMEENQRVARRRRFPFVRERSDSTGSSSVYFTASSGATFTDAESEGGYTTANAESDNERDSDKESEDGEDEVSCETVKMGRKDSLDLEEEAASGASSALEAGGSSGLEDVLPLLQQADELHRGDEQGKREGFQLLLNNKLVYGSRQDFLWRLARAYSDMCELTEEVSEKKSYALDGKEEAEAALEKGDESADCHLWYAVLCGQLAEHESIQRRIQSGFSFKEHVDKAIALQPENPMAHFLLGRWCYQVSHLSWLEKKTATALLESPLSATVEDALQSFLKAEELQPGFSKAGRVYISKCYRELGKNSEARWWMKLALELPDVTKEDLAIQKDLEELEVILRD
B2: endogenous PTPIP51 (mouse spinal cord) (protein, UniProt Q3UJU9 1-470)
chain: MSRLGALGGSRAGLGLLLGTAAGLGFLCVLYSQRWKRTQRHGRSHSLPNSLDYAQASERGRQVTQFRAIPGEAGDAAILPSLSQEGQEKVLDRLDFVLTSLMALRREVEELQRSLQGLAGEIVGEVRSHIEENQRVARRRRFPFARERSDSTGSSSVYFTASSGAALTDAESEGGYTTANAESDYERDSDKESGDAEDEVSCETVRMGRKDSLDLDVEAASSPAAAALEEDDSSGREDVQLVLLQADELHQGSKQDKREGFQLLLNNKLAYGSRQDFLWRLARAYSDMSDLTEEESGKKSYALNGKEEAEAALKKGDESAACHLWYAVLCGQLAEHEGISKRIQSGFSFKEHVDKAIELQPEDPRGHFLLGRWCYQVSHLNWLEKKTATALFESPLSATVQDALQSFLKAEELQPGFSKAGRVYISKCYRELGKNSEARKWMKLAQELPDVTNEDSAFQKDLEELEVILG

Columns and labels:
HA-tagged PTPIP51 [1] = biological target: T1, HA-tagged PTPIP51; test: co-IP; HEK293 cells co-transfected with VAPB or PTPIP51 and EGFP-tagged wild-type or mutant TDP-43; VAPB and PTPIP51 immunoprecipitated via their myc or HA tags, samples probed for co-immunoprecipitating TDP-43
myc-tagged VAPB = myc-tagged VAPB (UniProt O95292); test: as above
HA-tagged PTPIP51 [2] = biological target: T1, HA-tagged PTPIP51; test: co-IP; HEK293 cells transfected with PTPIP51-HA, lysed in immunoprecipitation buffer (50 mM Tris-citrate pH 7.4, 150 mM NaCl, 1% Triton X-100, 5 mM EGTA, 5 mM EDTA); IP via the HA tag, endogenous VAPB detected by immunoblotting; co-transfected EGFP control or wild-type or mutant TDP-43
HA-tagged PTPIP51 [3] = biological target: T1, HA-tagged PTPIP51; test: co-IP; NSC34 cells transfected with PTPIP51-HA, lysed in RIPA buffer; IP via the HA tag, endogenous VAPB detected by immunoblotting; with control or TDP-43 siRNAs, or co-transfected EGFP control or wild-type or mutant EGFP-TDP-43
[4] = biological target: GST-VAPB1-220 (the entire cytosolic domain) (UniProt O95292); test: pull-down; in vitro; 50 ug purified recombinant PTPIP51(36-470) incubated 16 h at 4 °C with GST or GST-VAPB(1-220) on glutathione-sepharose beads in PBS with 1% Triton X-100; bound PTPIP51 detected by immunoblotting; both purified
[5] = biological target: endogenous VAPB (mouse) (mouse (endogenous in NSC34 cells and spinal cord)) (UniProt Q9QY76); test: co-IP; mouse spinal cords (non-transgenic and TDP-43 transgenic) homogenized and diluted into immunoprecipitation buffer; VAPB immunoprecipitated with rabbit anti-VAPB, bound PTPIP51 detected with rat PTPIP51 antibody

| binding (HA-tagged PTPIP51 [1]) | binding (myc-tagged VAPB) | also measured | Molecule |
| --- | --- | --- | --- |
| no binding | no binding | – | EGFP-TDP-43A382T (from UniProt Q13148 1-414) |
| no binding | no binding | – | EGFP-TDP-43G348C (from UniProt Q13148 1-414) |
| no binding | no binding | – | EGFP-TDP-43M337V (from UniProt Q13148 1-414) |
| no binding | no binding | – | EGFP-TDP-43Q331K (from UniProt Q13148 1-414) |
| no binding | no binding | – | EGFP-tagged wild-type TDP-43 (from UniProt Q13148 1-414) |
| – | – | binding (HA-tagged PTPIP51 [2]): binds | endogenous VAPB (HEK293) (from UniProt O95292 1-243) |
| – | – | binding (HA-tagged PTPIP51 [3]): binds | endogenous VAPB (mouse) (from UniProt Q9QY76 1-243) |
| – | – | binding [4]: binds | B1 |
| – | – | binding [5]: binds | B2 |

Reference: paper PMC4046113
